# This is one part of the list. One pool of 16,384 single-stranded DNAs met each Rep nickase domain in vitro (3 µM enzyme, 1 h, 37 °C); shown is the middle of each 90-letter strand. Values are log2 of uncut reads against the no-enzyme pool; the lower, the more was cut; hits are not called. Counts are relative to all reads; uncut strands gain when others are lost, and binding without cutting may add a little.
# Assays:
# Experiment in all cases: uncleaved DNA left, log2 of reads against the no-enzyme library (log2 ratio); higher = less cleavage (more negative = more Rep cleavage of the k-mer); sequences stand for … in CTCGTCCG…ACCGGAGA
# [1] = test system: T1, Rep nickase domain of Muscovy duck circovirus
# T1 sequence (protein, residues 1-111, tag omitted): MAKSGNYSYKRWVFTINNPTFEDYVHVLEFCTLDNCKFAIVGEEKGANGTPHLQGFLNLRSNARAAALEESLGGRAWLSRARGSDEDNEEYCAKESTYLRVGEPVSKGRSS
# Procedure: (§1)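 A pool of 90-nt single-stranded DNAs with seven random bases just before the constant AC of the nick site (name = the seven bases) was cut by 3 µM recombinant His6-SUMO-tagged Rep nickase domain (300 nM DNA, 50 mM HEPES pH 8.0, 50 mM NaCl, 1 mM MnCl2, 1 h, 37 °C, three replicates). Uncut DNA was amplified and sequenced.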
# [2] = test system: T2, Rep nickase domain of banana bunchy top virus
# T2 sequence (protein, residues 1-94, tag omitted): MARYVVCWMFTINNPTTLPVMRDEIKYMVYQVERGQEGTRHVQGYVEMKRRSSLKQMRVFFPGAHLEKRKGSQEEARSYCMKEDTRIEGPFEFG
# Procedure: as §1
# [3] = test system: T3, Rep nickase domain of cabbage leaf curl virus
# T3 sequence (protein, residues 1-116, tag omitted): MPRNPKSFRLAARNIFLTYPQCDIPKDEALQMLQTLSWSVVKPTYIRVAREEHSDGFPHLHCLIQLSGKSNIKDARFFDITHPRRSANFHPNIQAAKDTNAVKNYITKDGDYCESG
# Procedure: as §1
# [4] = test system: T4, Rep nickase domain of chickpea chlorotic dwarf virus
# T4 sequence (protein, residues 1-124, tag omitted): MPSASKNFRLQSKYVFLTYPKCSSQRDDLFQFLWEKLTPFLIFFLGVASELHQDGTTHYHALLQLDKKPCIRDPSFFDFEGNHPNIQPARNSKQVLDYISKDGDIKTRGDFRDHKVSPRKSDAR
# Procedure: as §1
# [5] = test system: T5, Rep nickase domain of faba bean necrotic yellows virus
# T5 sequence (protein, residues 1-98, tag omitted): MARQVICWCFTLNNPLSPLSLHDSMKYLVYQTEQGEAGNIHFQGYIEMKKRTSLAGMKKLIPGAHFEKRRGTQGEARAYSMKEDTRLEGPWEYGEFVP
# Procedure: as §1
# [6] = test system: T6, Rep nickase domain of maize striate mosaic virus
# T6 sequence (protein, residues 1-117, tag omitted): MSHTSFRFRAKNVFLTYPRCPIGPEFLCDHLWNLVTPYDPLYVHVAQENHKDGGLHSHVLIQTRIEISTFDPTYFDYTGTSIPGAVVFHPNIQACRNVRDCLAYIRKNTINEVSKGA
# Procedure: as §1
# [7] = test system: T7, Rep nickase domain of porcine circovirus 2
# T7 sequence (protein, residues 2-116, tag omitted): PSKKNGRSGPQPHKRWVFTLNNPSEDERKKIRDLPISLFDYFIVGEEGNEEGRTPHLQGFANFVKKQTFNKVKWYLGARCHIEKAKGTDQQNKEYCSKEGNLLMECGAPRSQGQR
# Procedure: as §1
# [8] = test system: T8, Rep nickase domain of tomato golden mosaic virus
# T8 sequence (protein, residues 1-124, tag omitted): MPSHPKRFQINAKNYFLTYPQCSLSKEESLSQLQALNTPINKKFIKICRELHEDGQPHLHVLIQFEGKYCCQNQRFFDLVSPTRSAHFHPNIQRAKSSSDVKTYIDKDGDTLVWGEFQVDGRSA
# Procedure: as §1
# [9] = test system: T9, Rep nickase domain of tomato yellow leaf curl virus
# T9 sequence (protein, residues 1-136, tag omitted): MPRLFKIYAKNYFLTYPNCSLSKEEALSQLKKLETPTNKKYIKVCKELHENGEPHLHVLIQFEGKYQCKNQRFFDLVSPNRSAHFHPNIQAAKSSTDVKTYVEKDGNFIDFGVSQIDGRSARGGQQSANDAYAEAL
# Procedure: as §1
# [10] = test system: T10, Rep nickase domain of wheat dwarf virus
# T10 sequence (protein, residues 1-137, tag omitted): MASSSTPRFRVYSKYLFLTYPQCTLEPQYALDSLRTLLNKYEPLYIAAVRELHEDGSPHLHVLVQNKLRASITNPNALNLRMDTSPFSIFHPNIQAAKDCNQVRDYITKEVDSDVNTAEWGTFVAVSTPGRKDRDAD
# Procedure: as §1
Sequence,uncleaved DNA left (log2) [1],uncleaved DNA left (log2) [2],uncleaved DNA left (log2) [3],uncleaved DNA left (log2) [4],uncleaved DNA left (log2) [5],uncleaved DNA left (log2) [6],uncleaved DNA left (log2) [7],uncleaved DNA left (log2) [8],uncleaved DNA left (log2) [9],uncleaved DNA left (log2) [10]
GTTCGCT,-0.00802,-0.0544,0.249,0.457,0.0334,0.523,0.104,-0.0161,0.137,-0.0129
CACATGA,0.112,0.108,-0.266,-0.568,0.075,-1.03,0.183,0.0848,0.0453,0.00943
TTCATGC,0.0141,-0.0522,-0.601,-0.504,-0.00751,-1.31,0.109,-0.062,0.079,-0.0862
ATCAGTG,0.0381,0.0726,-0.705,-0.673,-0.000697,-0.98,0.15,0.108,-0.00822,-0.052
CCCAGGA,0.0756,0.0364,0.114,0.707,-0.0528,-0.0677,-0.00763,-0.0484,-0.126,-0.0762
TGGAAAA,0.214,0.164,0.583,1.07,0.0416,0.964,0.227,0.0964,0.0906,0.16
ATTGGTC,0.0637,-0.223,-0.145,-0.165,-0.04,-0.611,-0.0731,-0.13,-0.0328,-0.123
CAACGAA,-0.0148,0.022,-0.19,-0.907,0.0316,-0.981,-0.0277,0.00473,-0.157,-0.105
CACTCAA,0.0237,0.0731,-0.027,-1.02,-0.214,-0.623,-0.694,0.0272,-0.19,0.053
CGGCAAT,-0.0695,0.13,0.59,1.16,0.0955,1.41,0.202,-0.034,-0.0474,0.13
GTACTTG,-0.0459,-0.133,-0.00598,-0.0291,-0.0299,0.307,0.00315,-0.0286,-0.0378,-0.0658
CTGCGGG,-0.0212,-0.0491,-0.462,-0.377,0.0141,-0.971,0.037,-0.101,-0.103,-0.255
TGACTAC,0.0881,0.114,0.279,-0.226,0.0406,0.904,0.0338,-0.00154,0.00358,0.0585
AATAACA,-0.00541,-0.0487,-0.721,-2.67,-0.0872,-1.31,-0.154,-0.0464,-0.0759,-0.124
TGTCGCG,0.0679,-0.0141,-0.717,0.611,0.117,-0.632,0.151,-0.0552,-0.023,-0.138
CATACCT,-0.0682,-1.58,-0.494,-2.83,0.0301,-0.754,-1.7,-0.14,-0.097,-0.174
TTATCGA,0.132,0.0806,-0.0938,-0.369,0.0976,-0.906,0.0543,-0.0978,0.143,0.108
CCCTTGT,-0.227,-0.0546,-0.166,-0.734,0.0502,-0.964,-0.795,0.0425,-0.0313,-0.122
ATGCGAG,-0.107,0.00531,-0.377,-0.184,-0.0152,-0.879,0.0461,0.026,-0.129,-0.148
TCTACTG,0.132,-0.0707,0.0193,0.0997,0.0225,1.14,-0.0015,0.036,-0.0778,-0.00215
CGTCATG,-0.0811,-0.0738,-0.22,0.0312,0.0387,0.022,-0.0371,-0.103,-0.1,0.0337

Sequence,uncleaved DNA left (log2) [1],uncleaved DNA left (log2) [2],uncleaved DNA left (log2) [3],uncleaved DNA left (log2) [4],uncleaved DNA left (log2) [5],uncleaved DNA left (log2) [6],uncleaved DNA left (log2) [7],uncleaved DNA left (log2) [8],uncleaved DNA left (log2) [9],uncleaved DNA left (log2) [10]
CATTAAC,-0.01,-0.0497,-0.491,-1.79,0.00039,-1.02,0.0748,,0.0304,-0.167
GCGAAGG,0.0255,0.07,0.178,0.832,0.0442,1.34,0.228,,0.139,0.0834
TATATGG,0.0405,-0.00427,0.372,0.929,0.0276,0.783,0.153,,-0.0962,0.0136
AGGGGTC,-0.0254,0.0353,0.273,1.17,-0.0695,1.27,0.187,,-0.0208,0.0769
GGCAGGA,0.0655,0.0209,0.589,1.06,0.00982,1.28,0.138,,0.0838,0.104
CACGGAG,0.15,0.0382,-0.557,-0.398,0.124,-0.721,0.0956,,0.04,-0.0959
GACTAGC,-0.000907,-0.0232,-0.0212,0.111,-0.0739,-0.453,0.104,,-0.048,0.054
AATTCAA,-0.185,0.0362,-0.00938,-0.449,0.0766,-0.65,-0.367,,0.0509,0.0952
TTTCCCA,-0.568,-0.0546,0.169,-0.642,-0.133,0.056,-2.78,,-0.00772,-0.00707
AAAAGAT,0.0653,-0.0268,0.073,1.13,-0.105,1.64,0.197,,-0.138,0.00451
ATTTGGG,0.044,0.0162,-0.588,-0.518,0.185,-1.06,0.275,,0.184,-0.00838
TCTGATG,-0.0502,-0.021,-0.238,-0.147,0.0624,-0.798,0.0903,,0.0709,0.0092
TGTCACT,-0.00476,0.0512,0.231,-1,-0.188,0.547,-1.25,,0.0217,-0.00459
TGGAATA,-0.00796,0.117,0.362,0.47,0.0617,1.22,0.00586,,0.081,0.221
TTAGCGC,0.0744,-0.107,-0.796,-0.315,-0.121,-1.06,0.101,,0.00816,-0.0278
CTCTCAC,0.0797,-0.0543,0.0383,-0.379,0.135,-0.588,0.0381,,-0.0159,0.102
GCGCTGC,0.144,-0.112,-0.0526,0.58,0.0853,1.08,-0.0196,,-0.113,-0.00266
AGAGCTG,-0.0497,-0.00106,0.17,1.05,0.0117,1.72,0.063,,-0.088,-0.0296
TGAATAC,-0.0296,0.0221,0.339,0.287,-0.129,0.767,0.0285,,-0.0528,0.0746
CATTTCG,-0.0611,-0.0889,-0.462,0.95,-0.0821,0.0505,0.0724,,0.151,-0.0891
TTTCGGT,-0.0358,-0.0718,0.382,0.765,-0.159,1.31,-0.00728,,-0.106,-0.125

Sequence,uncleaved DNA left (log2) [1],uncleaved DNA left (log2) [2],uncleaved DNA left (log2) [3],uncleaved DNA left (log2) [4],uncleaved DNA left (log2) [5],uncleaved DNA left (log2) [6],uncleaved DNA left (log2) [7],uncleaved DNA left (log2) [8],uncleaved DNA left (log2) [9],uncleaved DNA left (log2) [10]
TTAAACT,0.00203,-0.0248,-0.114,-2.67,-0.0669,-0.5,-0.399,,0.0174,-0.128
TTTTGTC,-0.0947,-0.322,-0.237,-0.62,-0.15,-1.22,-0.144,,-0.181,-0.208
GGTATCC,0.014,0.061,0.478,1.33,-0.0635,1.69,0.0988,,0.0897,0.134
GGGCGAC,-0.00424,0.0837,0.547,1.42,-0.0745,1.88,0.109,,0.0111,0.168
AATACAC,0.0344,0.0725,0.0186,-0.572,0.0208,-0.634,0.0857,,-0.0355,0.0211
AATTATG,-0.104,-0.125,-0.614,-0.594,-0.0954,-1.07,0.0524,,0.0126,-0.0788
GCCGCAT,-0.112,-0.0774,0.28,0.71,-0.0584,0.568,0.0485,,0.00141,0.00381
CGGCATA,-0.0478,0.0054,0.226,0.943,-0.00451,1.16,-0.134,,0.00843,0.1
AGAATTC,0.0152,0.014,0.153,0.262,0.0309,-0.595,-0.0132,,-0.0402,-0.0179
GCTCGAG,0.0166,-0.0265,0.141,0.752,0.0742,-0.23,0.0516,,-0.0546,0.0343
TGACACG,0.0599,-0.0513,-0.692,-0.657,-0.0176,-1.01,0.215,,0.00896,0.00617
GCTGATT,-0.123,-0.0132,0.114,-0.348,-0.0163,0.614,-0.141,,-0.154,-0.124
CCGCGGC,-0.174,-0.0531,-0.189,-0.324,-0.0384,-0.56,0.106,,-0.041,-0.0768
CGAGCAT,0.189,0.201,0.0398,0.335,0.116,0.529,-0.169,,-0.00632,0.195
TATTACA,-3.78,-1.67,-2.45,-3.06,-0.97,-0.677,-3.67,,0.193,-2.42
CGAAGCC,0.13,0.0939,0.279,0.684,0.0106,0.656,0.159,,0.0337,0.0513
TGATACT,-3.99,-0.155,-1.91,-2.96,-0.0505,-0.872,-3.89,,0.0293,-1.77
ATAACAG,0.154,0.115,-0.733,-1.69,0.109,-1.17,0.19,,0.0542,-0.0619
AGTTTTA,-0.0717,-0.0186,-0.0511,-1.83,0.105,0.725,-0.815,,0.109,-0.00218
GCATGAC,0.0399,-0.0266,0.177,0.591,-0.0569,0.0725,0.143,,-0.0744,0.0073

# — the supplement of paper PMC7826260
